According to the supplement of paper PMC8728848:
The other results are listed elsewhere or left out.

Assays:
Experiment in all cases: glycan array binding signal (z-score within array); higher = stronger binding
Conditions in all cases: glycan notation: IUPAC condensed, linker removed
[1] = target: Gal(b1-3)GalNAc(b1-3)Gal(a1-4)Gal(b1-4)Glc
Method in brief: (§1)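 Negative Z-scores can be read as non-binding. The Z-score is calculated within each array and then averaged across arrays of one protein sequence at different concentrations or buffers and across linkers. Arrays, 3228 in all, were curated from the Consortium for Functional Glycomics database and kept only where the protein sequence was available.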

[2] = target: Gal(b1-3)GalNAc(b1-4)Gal(b1-4)Glc
Method in brief: as §1

[3] = target: Gal(b1-3)GalNAc(b1-4)[Neu5Ac(a2-3)]Gal(b1-4)Glc
Method in brief: as §1

Gal(b1-3)GlcNAc = target: Gal(b1-3)GlcNAc
Method in brief: as §1

[4] = target: Gal(b1-3)GlcNAc(a1-3)Gal(b1-4)GlcNAc
Method in brief: as §1

[5] = target: Gal(b1-3)GlcNAc(a1-6)Gal(b1-4)GlcNAc
Method in brief: as §1

Gal(b1-3)GlcNAc(b1-2)Man = target: Gal(b1-3)GlcNAc(b1-2)Man
Method in brief: as §1

[6] = target: Gal(b1-3)GlcNAc(b1-2)Man(a1-3)[Gal(b1-3)GlcNAc(b1-2)Man(a1-6)]Man(b1-4)GlcNAc(b1-4)GlcNAc
Method in brief: as §1

[7] = target: Gal(b1-3)GlcNAc(b1-2)Man(a1-3)[Gal(b1-3)GlcNAc(b1-2)Man(a1-6)]Man(b1-4)GlcNAc(b1-4)[Fuc(a1-6)]GlcNAc
Method in brief: as §1

[8] = target: Gal(b1-3)GlcNAc(b1-2)Man(a1-3)[GlcNAc(b1-4)][Gal(b1-3)GlcNAc(b1-2)Man(a1-6)]Man(b1-4)GlcNAc(b1-4)GlcNAc
Method in brief: as §1

[9] = target: Gal(b1-3)GlcNAc(b1-2)[Gal(b1-3)GlcNAc(b1-6)]Man(a1-6)[Gal(b1-3)GlcNAc(b1-2)Man(a1-3)]Man(b1-4)GlcNAc(b1-4)GlcNAc
Method in brief: as §1

[10] = target: Gal(b1-3)GlcNAc(b1-3)Gal(b1-3)GlcNAc
Method in brief: as §1

[11] = target: Gal(b1-3)GlcNAc(b1-3)Gal(b1-4)Glc
Method in brief: as §1

[12] = target: Gal(b1-3)GlcNAc(b1-3)Gal(b1-4)GlcNAc
Method in brief: as §1

[13] = target: Gal(b1-3)GlcNAc(b1-3)Gal(b1-4)GlcNAc(b1-2)Man(a1-3)[Gal(b1-3)GlcNAc(b1-3)Gal(b1-4)GlcNAc(b1-2)Man(a1-6)]Man(b1-4)GlcNAc(b1-4)GlcNAc
Method in brief: as §1

[14] = target: Gal(b1-3)GlcNAc(b1-3)Gal(b1-4)GlcNAc(b1-2)[Gal(b1-3)GlcNAc(b1-3)Gal(b1-4)GlcNAc(b1-6)]Man(a1-6)[Gal(b1-3)GlcNAc(b1-3)Gal(b1-4)GlcNAc(b1-2)Man(a1-3)]Man(b1-4)GlcNAc(b1-4)[Fuc(a1-6)]GlcNAc
Method in brief: as §1

[15] = target: Gal(b1-3)GlcNAc(b1-3)Gal(b1-4)GlcNAc(b1-3)Gal(b1-4)GlcNAc(b1-2)[Gal(b1-3)GlcNAc(b1-3)Gal(b1-4)GlcNAc(b1-3)Gal(b1-4)GlcNAc(b1-6)]Man(a1-6)[Gal(b1-3)GlcNAc(b1-3)Gal(b1-4)GlcNAc(b1-3)Gal(b1-4)GlcNAc(b1-2)Man(a1-3)]Man(b1-4)GlcNAc(b1-4)[Fuc(a1-6)]GlcNAc
Method in brief: as §1

[16] = target: Gal(b1-3)GlcNAc(b1-3)Gal(b1-4)GlcNAc(b1-6)[Gal(b1-3)GlcNAc(b1-3)]Gal(b1-4)Glc
Method in brief: as §1

[17] = target: Gal(b1-3)GlcNAc(b1-3)Gal(b1-4)[Fuc(a1-3)]GlcNAc
Method in brief: as §1

[18] = target: Gal(b1-3)GlcNAc(b1-3)Gal(b1-4)[Fuc(a1-3)]GlcNAc(b1-6)[Gal(b1-3)GlcNAc(b1-3)]Gal(b1-4)Glc
Method in brief: as §1

[19] = target: Gal(b1-3)GlcNAc(b1-3)GalNAc
Method in brief: as §1

[20] = target: Gal(b1-3)GlcNAc(b1-6)Gal(b1-4)GlcNAc
Method in brief: as §1

[21] = target: Gal(b1-3)GlcNAc(b1-6)GalNAc
Method in brief: as §1

[22] = target: Gal(b1-3)GlcNAc(b1-6)[Gal(b1-3)]GalNAc
Method in brief: as §1

Gal(b1-3)GlcNAc6S = target: Gal(b1-3)GlcNAc6S
Method in brief: as §1

[23] = target: Gal(b1-3)[Fuc(a1-4)]GlcNAc
Method in brief: as §1

[24] = target: Gal(b1-3)[Fuc(a1-4)]GlcNAc(b1-2)Man
Method in brief: as §1

[25] = target: Gal(b1-3)[Fuc(a1-4)]GlcNAc(b1-2)Man(a1-3)[Gal(b1-3)[Fuc(a1-4)]GlcNAc(b1-2)Man(a1-6)]Man(b1-4)GlcNAc(b1-4)[Fuc(a1-6)]GlcNAc
Method in brief: as §1

[26] = target: Gal(b1-3)[Fuc(a1-4)]GlcNAc(b1-3)Gal(b1-3)[Fuc(a1-4)]GlcNAc
Method in brief: as §1

[27] = target: Gal(b1-3)[Fuc(a1-4)]GlcNAc(b1-3)Gal(b1-4)[Fuc(a1-3)]GlcNAc
Method in brief: as §1

[28] = target: Gal(b1-3)[Fuc(a1-4)]GlcNAc(b1-6)GalNAc
Method in brief: as §1

[29] = target: Gal(b1-3)[GlcNAc(b1-6)]GalNAc
Method in brief: as §1

[30] = target: Gal(b1-3)[Neu5Ac(a2-6)]GalNAc
Method in brief: as §1

[31] = target: Gal(b1-3)[Neu5Ac(a2-6)]GlcNAc(b1-4)Gal(b1-4)Glc
Method in brief: as §1

[32] = target: Gal(b1-3)[Neu5Ac(b2-6)]GalNAc
Method in brief: as §1

Gal(b1-4)Gal = target: Gal(b1-4)Gal
Method in brief: as §1

[33] = target: Gal(b1-4)GalNAc(a1-3)[Fuc(a1-2)]Gal(b1-4)GlcNAc
Method in brief: as §1

[34] = target: Gal(b1-4)GalNAc(b1-3)[Fuc(a1-2)]Gal(b1-4)GlcNAc
Method in brief: as §1

B1: Cohesin-mDC-ASGPR (Macaca mulatta) (protein)
chain: LDITSHHHHHHDDLDAVRIKVDTVNAKPGDTVRIPVRFSGIPSKGIANCDFVYSYDPNVLEIIEIEPGDIIVDPNPDKSFDTAVYPDRKIIVFLFAEDSGTGAYAITKDGVFATIVAKVKEGAPNGLSVIKFVEVGGFANNDLVEQKTQFFDGGVNVGDTTEPATPTTPVTTPTTTDDLDAASSQNSKFQRDLVTLRTDFSNFTSNTVAEIQALTSQGSSVEEMIASLKAEVEVIKQEQQAVHSEMLLRVQRLMQDLNKLTCQVATLKNNASTERTCCPVNWVEHQDSCYWFSRSGMPWAEAEKHCQLENAHLVVINSREEQNFVQEHLSFAYTWMGLSDREGAWKWVDGTDYETGFQNWKPGQPDDWQGHGLGGGEDCAHFHPDGRWNDDVCQRPYYWVCEAGLTQASQESH
[1]
  glycan array binding signal (z-score): 2.85
[2]
  glycan array binding signal (z-score): -0.274
[3]
  glycan array binding signal (z-score): 2.25
Gal(b1-3)GlcNAc
  glycan array binding signal (z-score): -0.378
[4]
  glycan array binding signal (z-score): -0.425
[5]
  glycan array binding signal (z-score): -0.381
Gal(b1-3)GlcNAc(b1-2)Man
  glycan array binding signal (z-score): -0.313
[6]
  glycan array binding signal (z-score): -0.431
[7]
  glycan array binding signal (z-score): -0.402
[8]
  glycan array binding signal (z-score): -0.4
[9]
  glycan array binding signal (z-score): -0.399
[10]
  glycan array binding signal (z-score): -0.417
[11]
  glycan array binding signal (z-score): -0.403
[12]
  glycan array binding signal (z-score): -0.422
[13]
  glycan array binding signal (z-score): -0.218
[14]
  glycan array binding signal (z-score): -0.251
[15]
  glycan array binding signal (z-score): 0.172
[16]
  glycan array binding signal (z-score): -0.416
[17]
  glycan array binding signal (z-score): -0.428
[18]
  glycan array binding signal (z-score): -0.418
[19]
  glycan array binding signal (z-score): -0.388
[20]
  glycan array binding signal (z-score): -0.397
[21]
  glycan array binding signal (z-score): 2.42
[22]
  glycan array binding signal (z-score): -0.141
Gal(b1-3)GlcNAc6S
  glycan array binding signal (z-score): -0.349
[23]
  glycan array binding signal (z-score): -0.366
[24]
  glycan array binding signal (z-score): -0.044
[25]
  glycan array binding signal (z-score): 0.065
[26]
  glycan array binding signal (z-score): -0.41
[27]
  glycan array binding signal (z-score): -0.418
[28]
  glycan array binding signal (z-score): 3.02
[29]
  glycan array binding signal (z-score): 0.805
[30]
  glycan array binding signal (z-score): -0.372
[31]
  glycan array binding signal (z-score): -0.393
[32]
  glycan array binding signal (z-score): -0.434
Gal(b1-4)Gal
  glycan array binding signal (z-score): -0.423
[33]
  glycan array binding signal (z-score): -0.408
[34]
  glycan array binding signal (z-score): -0.304
